According to the supplement of paper PMC10126150:
Values marked as one replicate rest on one cluster of the flow cell; about a third of the high ones do not repeat.

System: ATP
Assay: switch fluorescence ratio, 500 uM ATP over buffer (Cy3 cluster intensity, sum of 5 cycles each) (fold (ratio)); higher = stronger signal-on switching upon ATP binding; sequences stand for … in TCGTCGGCAGCGTCAGATGTGTATAAGAGACAGTTTTTTTTTTTTTTTTTTTTTTTTT…TC
Conditions: aptamer strand: ATP DNA aptamer (quencher-CACCTGGGGGAGTATTGCGGAGGAAGG + anchor), 100 nM annealed; ATP concentration: 500 uM; one replicate
Procedure, shortened: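 Clusters with intensities outside 100-1000 RFU were excluded. The remaining Cy3-labelled switching-strand clusters on a modified Illumina MiSeq flow-cell had been annealed to 100 nM quencher-labelled ATP aptamer and imaged in selection buffer, then after 15 min with 500 uM ATP at 22 °C, for five cycles separated by NaOH stripping and re-annealing. The fluorescence ratio, averaged per switch-domain sequence, is each cluster's summed target-cycle Cy3 intensity over its summed buffer-cycle Cy3 intensity.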
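Also: ATP exposure 15 min at 22 °C before imaging.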

TAAGGGGCTA showed a switch fluorescence ratio of 0.999.
GAATAAGCAT gave a switch fluorescence ratio of 1.28.
Work on AAGGCATCGG yielded a switch fluorescence ratio of 0.974.
Sequence TGAAGAATAA has a switch fluorescence ratio of 1.07.
Work on GAAACGCCAC yielded a switch fluorescence ratio of 1.55.
Work on TAACAGCATA yielded a switch fluorescence ratio of 1.11.
Sequence TTTCAGAAAC has a switch fluorescence ratio of 1.2.
CTGTCATGA was tested, and the switch fluorescence ratio was 1.
CGAGGTAGTA showed a switch fluorescence ratio of 1.01.
Work on TGAACCACAG yielded a switch fluorescence ratio of 1.21.
ATCTTCATTA showed a switch fluorescence ratio of 0.972.
For TTTTGACTAG, the switch fluorescence ratio was 0.972.
TCCTGGGACA showed a switch fluorescence ratio of 0.971.
CTGCTGAATA was tested, and the switch fluorescence ratio was 0.998.
Work on GAACCTATAA yielded a switch fluorescence ratio of 1.05.
CGGTTGACAG showed a switch fluorescence ratio of 1.02.
With CTCAAAACTT the switch fluorescence ratio was 1.03.
With GAAGGCGGGT the switch fluorescence ratio was 0.925.
In the case of GGCTACAGAC, the switch fluorescence ratio is reported as 1.05.
Work on GGACAGCCCG yielded a switch fluorescence ratio of 1.15.
In the case of GGTGGTTCA, the switch fluorescence ratio is reported as 1.01.
TACGGGGCGT gave a switch fluorescence ratio of 1.01.
GTTGCGATG was tested, and the switch fluorescence ratio was 1.02.
In the case of CGTATCCTTT, the switch fluorescence ratio is reported as 0.969.
TGCGTACGTG showed a switch fluorescence ratio of 0.99.
Work on CATTCGCGGG yielded a switch fluorescence ratio of 1.02.
TGAGTTGACG gave a switch fluorescence ratio of 0.967.
TTAGAGTGAG gave a switch fluorescence ratio of 1.03.
With AATGAGAGAC the switch fluorescence ratio was 1.03.
AAAGTCTGTT gave a switch fluorescence ratio of 0.99.
TGACGTGAGT showed a switch fluorescence ratio of 0.999.
With GGCTACTAGA the switch fluorescence ratio was 1.
Work on GAAGCCCTGC yielded a switch fluorescence ratio of 1.09.
TGCCCCCTTT showed a switch fluorescence ratio of 0.994.
For CGAAAACTAG, the switch fluorescence ratio was 1.08.
ACTGTGTAAT was tested, and the switch fluorescence ratio was 1.02.
For CTGTCGTCGG, the switch fluorescence ratio was 0.961.
TTCATGTCTT was tested, and the switch fluorescence ratio was 0.957.
GCAGCAAACG gave a switch fluorescence ratio of 2.04.
ACGCAGTTGA gave a switch fluorescence ratio of 1.03.
CAGTTTGTGT showed a switch fluorescence ratio of 1.
With GACAATCTTC the switch fluorescence ratio was 1.
For GTTCAATTCA, the switch fluorescence ratio was 1.02.
With GGTCTCATAT the switch fluorescence ratio was 0.994.
For TCCTTGCCAT, the switch fluorescence ratio was 1.01.
In the case of TGAACCCATC, the switch fluorescence ratio is reported as 1.02.
For GGTCGCAGG, the switch fluorescence ratio was 0.979.
In the case of TAGGGATTGT, the switch fluorescence ratio is reported as 1.04.
GCAGTCATAA showed a switch fluorescence ratio of 1.04.
GTCGGCAGGA was tested, and the switch fluorescence ratio was 0.967.
GTGTGTTTGA gave a switch fluorescence ratio of 0.997.
GAACTAACAT showed a switch fluorescence ratio of 1.12.
For GTCACACCA, the switch fluorescence ratio was 1.05.
CCTTGGTGGT gave a switch fluorescence ratio of 1.
With GGCATATCCG the switch fluorescence ratio was 0.991.
Work on CAGTACTATT yielded a switch fluorescence ratio of 1.01.
CGTTCATGTC was tested, and the switch fluorescence ratio was 1.1.
Work on TTGATTACTG yielded a switch fluorescence ratio of 1.06.
Work on GAAATGCGCC yielded a switch fluorescence ratio of 1.05.
Work on TCGCACGATA yielded a switch fluorescence ratio of 1.09.
Work on GGCACGGAGC yielded a switch fluorescence ratio of 1.06.
In the case of AGCGAAGTGT, the switch fluorescence ratio is reported as 0.988.
CGGGCCCCC showed a switch fluorescence ratio of 0.98.
For CTGTTGCGTG, the switch fluorescence ratio was 1.
CAGGTTGATA showed a switch fluorescence ratio of 0.998.
In the case of CGGCTCTAGT, the switch fluorescence ratio is reported as 1.02.
In the case of CGGAAGGCGT, the switch fluorescence ratio is reported as 0.947.
Work on ACTATTTACG yielded a switch fluorescence ratio of 1.09.
CGTTCAGTTA showed a switch fluorescence ratio of 1.02.
Sequence GCTGTTCGA has a switch fluorescence ratio of 0.964.
GCCAGCATGT showed a switch fluorescence ratio of 0.993.
Work on TAATGTGCAT yielded a switch fluorescence ratio of 1.
For GAGCTTAACA, the switch fluorescence ratio was 0.978.
GAAAAGAGCG was tested, and the switch fluorescence ratio was 1.03.
In the case of TTGCGGTCTG, the switch fluorescence ratio is reported as 0.992.
Work on TATTTCGGGC yielded a switch fluorescence ratio of 1.09.
ATCAATAAGG showed a switch fluorescence ratio of 0.992.
Work on AGTCGGAAAT yielded a switch fluorescence ratio of 0.97.
For AACGTTGTGT, the switch fluorescence ratio was 1.
For ACTTCACGCG, the switch fluorescence ratio was 1.09.
With AGTGAAGATA the switch fluorescence ratio was 0.995.
With TCGTATCCGG the switch fluorescence ratio was 1.02.
In the case of GGAACTTCGC, the switch fluorescence ratio is reported as 1.19.
Sequence GAAGCCGCAT has a switch fluorescence ratio of 1.46.
ATGTAAGC gave a switch fluorescence ratio of 1.07.
Sequence TCAGACTGAA has a switch fluorescence ratio of 1.03.
AACAATTTAG showed a switch fluorescence ratio of 1.02.
TCACCCACTG was tested, and the switch fluorescence ratio was 1.34.
GAGGTGTTG was tested, and the switch fluorescence ratio was 0.977.
For ATCCAATAAT, the switch fluorescence ratio was 0.997.
CCGCGCGTCT showed a switch fluorescence ratio of 1.24.
In the case of TGGTTCAATA, the switch fluorescence ratio is reported as 1.03.
AATCATCAAT was tested, and the switch fluorescence ratio was 1.01.
For GAATTCCTCG, the switch fluorescence ratio was 1.25.
ATACCCCCG gave a switch fluorescence ratio of 1.39.
TTTCCCCCGT gave a switch fluorescence ratio of 1.05.
GTGATCTTA gave a switch fluorescence ratio of 0.992.
Sequence TCCACCAGGG has a switch fluorescence ratio of 6.13.
AAAGTGCTTA was tested, and the switch fluorescence ratio was 1.03.
Work on ATTGTAATTC yielded a switch fluorescence ratio of 1.23.
For ATATTATATT, the switch fluorescence ratio was 0.987.
GCGTAATAAT gave a switch fluorescence ratio of 1.21.
GAGTACACTA showed a switch fluorescence ratio of 1.11.
In the case of CATTCCCCGA, the switch fluorescence ratio is reported as 1.24.
Work on TACTGGGACC yielded a switch fluorescence ratio of 1.06.
With TAGATAAAAG the switch fluorescence ratio was 1.01.
For TGCCCCGTGC, the switch fluorescence ratio was 1.36.
TTCATTTCA gave a switch fluorescence ratio of 1.01.
GCATTACTAT was tested, and the switch fluorescence ratio was 1.19.
TTGTCGTGCG was tested, and the switch fluorescence ratio was 0.993.
Sequence TACGCCGAGG has a switch fluorescence ratio of 1.02.
GCTAGTCGAA was tested, and the switch fluorescence ratio was 0.946.
AGCGCTGCG showed a switch fluorescence ratio of 1.04.
Work on CAGGAATGGT yielded a switch fluorescence ratio of 0.996.
AAACGTGGAT gave a switch fluorescence ratio of 1.02.
Work on TTCGGTTAAG yielded a switch fluorescence ratio of 1.
TGGCCATTGC gave a switch fluorescence ratio of 1.03.
In the case of TAGGAACCTT, the switch fluorescence ratio is reported as 1.79.
In the case of TATGAGTCCG, the switch fluorescence ratio is reported as 1.21.
For GGTTGCCTTA, the switch fluorescence ratio was 0.828.
Sequence GATTCATTAA has a switch fluorescence ratio of 0.948.
In the case of CGCCAAGTAT, the switch fluorescence ratio is reported as 1.09.
For CGCGGTTTTT, the switch fluorescence ratio was 0.997.
With ATTTCTCCTT the switch fluorescence ratio was 1.04.
TGAGTTCGTT gave a switch fluorescence ratio of 1.01.
Work on AAAGCGGTAA yielded a switch fluorescence ratio of 1.07.
For AATGAATACC, the switch fluorescence ratio was 1.
For ATTGTCACTA, the switch fluorescence ratio was 0.968.
TCTGCTAGTG showed a switch fluorescence ratio of 1.
In the case of ATCGTAATAT, the switch fluorescence ratio is reported as 1.36.
Sequence CGCTTGAGCG has a switch fluorescence ratio of 0.968.
GCTGAGACTC was tested, and the switch fluorescence ratio was 1.06.
In the case of AAGTAGTCGG, the switch fluorescence ratio is reported as 0.989.
CAGTTAAGTT was tested, and the switch fluorescence ratio was 1.01.
GTAAGTGCGT gave a switch fluorescence ratio of 1.06.
Sequence GTCGCGTAGC has a switch fluorescence ratio of 0.995.
Sequence TCAATAATTT has a switch fluorescence ratio of 0.984.
With GTGTAGGTGC the switch fluorescence ratio was 1.07.
In the case of ATACCAGAGC, the switch fluorescence ratio is reported as 1.04.
Work on TCCAAATCCC yielded a switch fluorescence ratio of 1.06.
In the case of CAGAACGACG, the switch fluorescence ratio is reported as 1.02.
Work on GCAGACGCGA yielded a switch fluorescence ratio of 1.62.
CGGTTCGAAC gave a switch fluorescence ratio of 0.972.
TGTCGAACGT gave a switch fluorescence ratio of 0.987.
AACGCGATTG showed a switch fluorescence ratio of 1.19.
In the case of GCTTTGGAGC, the switch fluorescence ratio is reported as 0.998.
ATTCAGGGTT gave a switch fluorescence ratio of 0.996.
For CCTGCGATCA, the switch fluorescence ratio was 1.75.
For GGCCGTTTTG, the switch fluorescence ratio was 0.961.
GCTAGGGGAG showed a switch fluorescence ratio of 0.986.
GAGGACATTG showed a switch fluorescence ratio of 1.02.
For CGATCAACGG, the switch fluorescence ratio was 0.984.
Sequence GGGCCTACGG has a switch fluorescence ratio of 1.02.
With CGGAGCTGAG the switch fluorescence ratio was 2.15.
Sequence GCTGCAACTG has a switch fluorescence ratio of 1.07.
Work on TCTAGTGCAG yielded a switch fluorescence ratio of 1.02.
ATCGAAGGCG gave a switch fluorescence ratio of 0.929.
GTAGTGCGAG was tested, and the switch fluorescence ratio was 1.03.
For AAAGGGATAC, the switch fluorescence ratio was 1.19.
ATGTTGGTGC showed a switch fluorescence ratio of 0.988.
In the case of TCGCATGAGG, the switch fluorescence ratio is reported as 0.984.
Work on AAAGAAGGTT yielded a switch fluorescence ratio of 0.977.
With ACCGCGGAGG the switch fluorescence ratio was 0.972.
In the case of TGGTCAAATT, the switch fluorescence ratio is reported as 1.01.
CTAATTTCGG showed a switch fluorescence ratio of 0.975.
For CTACAACTTA, the switch fluorescence ratio was 1.
GGCTAACTTC gave a switch fluorescence ratio of 0.992.
CCGGGGCCGT showed a switch fluorescence ratio of 0.993.
With GCTTTGACCG the switch fluorescence ratio was 1.02.
CCCCATCCGA was tested, and the switch fluorescence ratio was 1.08.
Work on TTAGTGGACG yielded a switch fluorescence ratio of 0.938.
TAAGGGGT gave a switch fluorescence ratio of 1.25.
Sequence AAATTGGCCG has a switch fluorescence ratio of 1.
TCCCTGATTA gave a switch fluorescence ratio of 0.994.
GATACACAT showed a switch fluorescence ratio of 1.04.
In the case of CCTTTGTTGT, the switch fluorescence ratio is reported as 1.04.
For GCGTACTAGC, the switch fluorescence ratio was 0.994.
TTTGATGTGG was tested, and the switch fluorescence ratio was 1.01.
Work on TATCGAAAAG yielded a switch fluorescence ratio of 1.04.
With GCCAGCATC the switch fluorescence ratio was 1.1.
In the case of AACACAATAT, the switch fluorescence ratio is reported as 1.2.
CTTCAGGAA showed a switch fluorescence ratio of 1.04.
ACGCTAAGCA gave a switch fluorescence ratio of 1.28.
CTAAAGGCTT gave a switch fluorescence ratio of 0.962.
Work on AATGCTTATT yielded a switch fluorescence ratio of 0.955.
AGCGGGATTC gave a switch fluorescence ratio of 1.09.
TTCCGGACGG was tested, and the switch fluorescence ratio was 0.982.
In the case of CTTTGGATA, the switch fluorescence ratio is reported as 1.01.
Sequence TCGTGCGTTT has a switch fluorescence ratio of 0.993.
TCTGAGGTCA was tested, and the switch fluorescence ratio was 0.972.
AAAGCGGGAC showed a switch fluorescence ratio of 1.8.
Sequence GGGTAAAACA has a switch fluorescence ratio of 0.984.
Work on CTTTTTCGAT yielded a switch fluorescence ratio of 1.01.
GCTCCATGTA gave a switch fluorescence ratio of 1.03.
Sequence GCGCTTGTGT has a switch fluorescence ratio of 0.963.
Work on GAGACTGAGC yielded a switch fluorescence ratio of 0.955.
With ATAGCGCCC the switch fluorescence ratio was 1.04.
CTTGGACTAT showed a switch fluorescence ratio of 1.
ACAAGGTCAT gave a switch fluorescence ratio of 1.06.
With TGGTTACGGA the switch fluorescence ratio was 1.02.
For TCATTAGCAC, the switch fluorescence ratio was 0.954.
